These results are taken from PMC9911399, “Two distinct binding modes provide the RNA-binding protein RbFox with extraordinary sequence specificity”.

Positions count from the first letter of the chain named. This is one part of the list.

B1: UUAUCCC (DNA:RNA)
RNA: GGGAGACCGGAAUUCAGAUUGUCCUUAUCCCUUAAAUCCCGUCGUAGCCACCA
DNA 1: CAATCTGAATTCCGGTCTCCC
DNA 2: TGGTGGCTACGACGGGATT
B2: UGCGAGG (DNA:RNA)
RNA: B1 RNA with U26G, A27C, U28G, C29A, C30G, C31G
DNA 1: CAATCTGAATTCCGGTCTCCC
DNA 2: TGGTGGCTACGACGGGATT
B3: UCAGUAA (DNA:RNA)
RNA: B1 RNA with U26C, U28G, C29U, C30A, C31A
DNA 1: CAATCTGAATTCCGGTCTCCC
DNA 2: TGGTGGCTACGACGGGATT
B4: GGGGGGU (DNA:RNA)
RNA: GGGAGACCGGAAUUCAGAUUGUCCGGGGGGUUUAAAUCCCGUCGUAGCCACCA
DNA 1: CAATCTGAATTCCGGTCTCCC
DNA 2: TGGTGGCTACGACGGGATT
B5: CGGGUAC (DNA:RNA)
RNA: B4 RNA with G25C, G29U, G30A, U31C
DNA 1: CAATCTGAATTCCGGTCTCCC
DNA 2: TGGTGGCTACGACGGGATT
B6: UCCAGUU (DNA:RNA)
RNA: B4 RNA with G25U, G26C, G27C, G28A, G30U
DNA 1: CAATCTGAATTCCGGTCTCCC
DNA 2: TGGTGGCTACGACGGGATT
B7: UAGAGAU (DNA:RNA)
RNA: B4 RNA with G25U, G26A, G28A, G30A
DNA 1: CAATCTGAATTCCGGTCTCCC
DNA 2: TGGTGGCTACGACGGGATT
B8: GGGCCAC (DNA:RNA)
RNA: B4 RNA with G28C, G29C, G30A, U31C
DNA 1: CAATCTGAATTCCGGTCTCCC
DNA 2: TGGTGGCTACGACGGGATT
B9: GGAUUAA (DNA:RNA)
RNA: B4 RNA with G27A, G28U, G29U, G30A, U31A
DNA 1: CAATCTGAATTCCGGTCTCCC
DNA 2: TGGTGGCTACGACGGGATT

The assay addresses T1, RBFOX1 RRM (Homo sapiens, UniProt Q9NWB1 109-208).
T1 sequence: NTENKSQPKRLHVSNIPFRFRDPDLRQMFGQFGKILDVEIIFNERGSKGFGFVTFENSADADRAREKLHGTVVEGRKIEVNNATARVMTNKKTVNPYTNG
Put plainly: EMSA; HiTS-Eq, 1 nM pool, 10 min; buffer printed only for the single-RNA assays: 10 mM Tris pH 7.5, 150 mM NaCl, 3.4 mM EDTA, 0.001% NP-40, 30 C. The settings on record: tags: His6 N-terminal (pET28a); label: 5' 32P. A digest of the protocol:
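Relative association constants, normalised to the cognate motif, were derived by comparing read counts of each RNA species with those of the control reaction. The RNA sequenced was the free fraction, separated by 8% native PAGE after a 10 min equilibration in 50 µL of 1 nM 5′-radiolabelled RNA (7 randomized nucleotides) with increasing concentrations of purified wild-type or mutant RbFox RRM.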
(In general: A gel shift assay detects complexes by their altered migration in electrophoresis.)
With B1, the binding signal is 0.0026 KA relative to UGCAUGU.
For the molecule B2, the binding signal was 0.0231 KA relative to UGCAUGU.
The result for B3 reads 0.00434 KA relative to UGCAUGU; that for B4, 0.0254 KA relative to UGCAUGU; that for B5, 0.0309 KA relative to UGCAUGU.
Take B6: the binding signal is 0.00643 KA relative to UGCAUGU.
On to B7, for which the binding signal was 0.00724 KA relative to UGCAUGU.
In the case of B8, the binding signal was 0.00639 KA relative to UGCAUGU.
On to B9, for which the binding signal is 0.00613 KA relative to UGCAUGU.
